Data published in US11732048B2, “Anti-axl antagonistic antibodies” (BERGEN TEKNOLOGIOVERFØRING AS, priority 2016, dated 2023).

System: Axl autophosphorylation (Tyrosine 866) in HeLa cells
Experiment: Phospho-Axl (Y866) ELISA on HeLa cell lysates
Format: cell-based, human
Description: To assess the level to which various Axl inhibitors reduce activation of Axl, as assessed through on of inhibition of Tyrosine 866 (Y866), one of Axl's known autophosphorylation sites (others include Y779 and Y821—see Oncotarget. 2014 October; 5(20): 9546-9563; doi: 10.18632/oncotarget.2542 and references cited therein).
Lysate Preparation • 1. Seed out HeLa cells in 14 10-cm dishes • a. 3 million cells per dish • 2. Incubate cells until attached • 3. Remove medium and wash cells with PBS • 4. Serum-starve the cells in 0.5% FBS media • a. 0.5% MEM for HeLa • b. O/N, at least 24 hour starvation • 5. Incubate cells with anti-Axl antibodies for 1 hour in 6 ml fresh 0.5% MEM. • a. BGB324 (CAS=1037624-75-1, UNII=0ICW2LX8AS): 0.2 uM • b. H2L1-Evitra*: 50 ug/ml • c. H2L1-Catalent*: 50 ug/ml • d. YW327.6S2: 50 ug/ml • *same sequence, different preparation • 6. Stimulate designated plates with 0.01 ug/ml rhGas6 in 6 ml of total media per 10-cm dish. • a. rhGas6 stimulation 0.01 ug/ml • 7. Set-up: Make each in 26 ml of 0.5% MEM • #1. Starvation • #2. rhGas6 stimulation (0.01 ug/ml) • #3. rhGas6 stimulation+pre-incubation with BGB324 0.2 uM • #4. rhGas6 stimulation+pre-incubation with H2L1-Evitra: 50 ug/ml • #5. rhGas6 stimulation+pre-incubation with H2L1-Catalent: 50 ug/ml • #6. rhGas6 stimulation+pre-incubation with YW327.6S2 50 ug/ml • #7. BGB324 0.2 uM alone • #8. H2L1-Evitra: 50 ug/ml alone • #9. H2L1-Catalent: 50 ug/ml alone • #10. YW327.6S2 50 ug/ml alone • 8. Stop reaction by lysing cells on ice • 9. Wash with cold PBS • 10. Add RIPA buffer (plus phosphatase inhibitors) • a. 100 ul/dish • 11. Scrape cells from dish • 12. Incubate 5-10 min on ice • 13. Spin down 13,000 rpm 5-10 min (cold) • 14. Supernatant transferred to fresh tube • 15. Measure phospho-protein by ELISA
Axl protein using BerGenBio's monoclonal mouse anti-HsAxl antibody 5F11 as the capture antibody, and the affinity selected polyclonal rabbit anti-phospho-Axl antibodies (pAxl-Y866-16) as the detection antibody.
Materials • Nunc MaxiSorp 96C plates • Tris-buffered saline (TBS) pH7.6 • Tween 20 (Sigma) • Wash buffer (TBS+0.05% Tween 20) • Fetal bovine serum (FBS) (Sigma) • Monoclonal mouse anti-HsAxl antibody 5F11, 3.6 mg/ml stock (BerGenBio). • Polyclonal rabbit anti-Hs-phospho-Y866 Axl antibody pAxl-Y866-16, 1.0 mg/ml (BerGenBio). Use diluted 1:1000 in TBS+10% FBS • HRP-conjugated Goat anti-Rabbit secondary antibody (Jackson Labs 111-035-144). Use at 1:2000 in TBS+10% FBS • Recombinant Human AxlFc chimera (AxlFc standard)(R&D Systems, 154-AL-100) • Recombinant Human AxlFc chimera conjugated to phospho-Axl peptides (pAxlFc standard) (BerGenBio) • 0.2M Sodium carbonate buffer pH9.4 • TMB stock solution (10 mg/ml 3,3′,5,5′-Tetramethylbenzidine, Sigma T2885 in DMSO) • 100 mM Sodium acetate pH6 • 1M H2SO4 • 30% Hydrogen peroxide solution • Lysates: prepared as above. For HeLa cells total protein concentration 1.5 mg/ml gives a strong signal. • Microplate reader with 450 nm absorbance. Absorbance at 595 nm (if available) should be subtracted to reduce background, but the effect is marginal. […]
Develop • Prepare fresh substrate solution: • 100 μl 10 mg/ml TMB stock solution • 10 μl 30% Hydrogen peroxide solution • 9.9 ml 100 mM Sodium acetate pH6 • Optional: test a small volume of the substrate solution by adding 1 μl leftover HRP-conjugated detection antibody mixture (step 12). […] Read plate on microplate reader with absorbance of 450 nm.

[1] = agent alone, starved HeLa (antibodies 50 ug/ml, BGB324 0.2 uM, rhGas6 0.01 ug/ml)
[2] = rhGas6 0.01 ug/ml stimulation after 1 hour pre-incubation (antibodies 50 ug/ml, BGB324 0.2 uM), starved HeLa

B1: H2L1 (Evitria): H2L1, same sequence, different preparation (antibody)
heavy: EVQLVESGGGLVQPGGSLRLSCAASGYSFTDFYINWVRQAPGKGLEWVARIFPGGDNTYYNEKFKGRFTLSADTSKSTAYLQMNSLRAEDTAVYYCARRGLYYAMDYWGQGTLVTVSS[in this place human IgG1 constant region]
light: DIQMTQSPSSLSASVGDRVTITCRSSQSLVHSNGIPYLHWYQQKPGKAPKLLIYRVSNRFSGVPSRFSGSGSGTDFTLTISSLQPEDFATYYCSQGTHVPPTFGQGTKVEIKRTVAAPSVFIFPPSDEQLKSGTASVVCLLNNFYPREAKVQWKVDNALQSGNSQESVTEQDSKDSTYSLSSTLTLSKADYEKHKVYACEVTHQGLSSPVTKSFNRGEC
Absorbance @ 450 nm (pAxl reading) [1]: 0.047
Absorbance @ 450 nm (pAxl reading) [2]: 0.04
Absorbance @ 450 nm (pAxl reading) (rhGas6 0.01 ug/ml stimulation after 1 hour pre-incubation (antibodies 50 ug/ml, BGB324 0.2 uM), starved HeLa, listed as H2L1-Evitria): 0.040

B2: H2L1 (Catalent): H2L1, same sequence, different preparation (antibody)
heavy: EVQLVESGGGLVQPGGSLRLSCAASGYSFTDFYINWVRQAPGKGLEWVARIFPGGDNTYYNEKFKGRFTLSADTSKSTAYLQMNSLRAEDTAVYYCARRGLYYAMDYWGQGTLVTVSS[in this place human IgG1 constant region]
light: DIQMTQSPSSLSASVGDRVTITCRSSQSLVHSNGIPYLHWYQQKPGKAPKLLIYRVSNRFSGVPSRFSGSGSGTDFTLTISSLQPEDFATYYCSQGTHVPPTFGQGTKVEIKRTVAAPSVFIFPPSDEQLKSGTASVVCLLNNFYPREAKVQWKVDNALQSGNSQESVTEQDSKDSTYSLSSTLTLSKADYEKHKVYACEVTHQGLSSPVTKSFNRGEC
Absorbance @ 450 nm (pAxl reading) [1]: 0.059
Absorbance @ 450 nm (pAxl reading) [2]: 0.055
